According to paper PMC4336329 (PLoS ONE, 2015):
Screen size: about 310,000 compounds; about 14,000 (4.5%) showed an effect of 50% or more. The effect is printed as a negative number. The list shows a part of the results.

Molecular target: human ether-à-go-go-related gene (hERG) potassium channel (human, UniProt Q12809)
Test: primary screen, population patch clamp on CHO cells stably expressing hERG
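Also: peak tail current of the secondary pulse compared with the same well before compound.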

Chain of human ether-à-go-go-related gene (hERG) potassium channel (Q12809 whole entry, looked up): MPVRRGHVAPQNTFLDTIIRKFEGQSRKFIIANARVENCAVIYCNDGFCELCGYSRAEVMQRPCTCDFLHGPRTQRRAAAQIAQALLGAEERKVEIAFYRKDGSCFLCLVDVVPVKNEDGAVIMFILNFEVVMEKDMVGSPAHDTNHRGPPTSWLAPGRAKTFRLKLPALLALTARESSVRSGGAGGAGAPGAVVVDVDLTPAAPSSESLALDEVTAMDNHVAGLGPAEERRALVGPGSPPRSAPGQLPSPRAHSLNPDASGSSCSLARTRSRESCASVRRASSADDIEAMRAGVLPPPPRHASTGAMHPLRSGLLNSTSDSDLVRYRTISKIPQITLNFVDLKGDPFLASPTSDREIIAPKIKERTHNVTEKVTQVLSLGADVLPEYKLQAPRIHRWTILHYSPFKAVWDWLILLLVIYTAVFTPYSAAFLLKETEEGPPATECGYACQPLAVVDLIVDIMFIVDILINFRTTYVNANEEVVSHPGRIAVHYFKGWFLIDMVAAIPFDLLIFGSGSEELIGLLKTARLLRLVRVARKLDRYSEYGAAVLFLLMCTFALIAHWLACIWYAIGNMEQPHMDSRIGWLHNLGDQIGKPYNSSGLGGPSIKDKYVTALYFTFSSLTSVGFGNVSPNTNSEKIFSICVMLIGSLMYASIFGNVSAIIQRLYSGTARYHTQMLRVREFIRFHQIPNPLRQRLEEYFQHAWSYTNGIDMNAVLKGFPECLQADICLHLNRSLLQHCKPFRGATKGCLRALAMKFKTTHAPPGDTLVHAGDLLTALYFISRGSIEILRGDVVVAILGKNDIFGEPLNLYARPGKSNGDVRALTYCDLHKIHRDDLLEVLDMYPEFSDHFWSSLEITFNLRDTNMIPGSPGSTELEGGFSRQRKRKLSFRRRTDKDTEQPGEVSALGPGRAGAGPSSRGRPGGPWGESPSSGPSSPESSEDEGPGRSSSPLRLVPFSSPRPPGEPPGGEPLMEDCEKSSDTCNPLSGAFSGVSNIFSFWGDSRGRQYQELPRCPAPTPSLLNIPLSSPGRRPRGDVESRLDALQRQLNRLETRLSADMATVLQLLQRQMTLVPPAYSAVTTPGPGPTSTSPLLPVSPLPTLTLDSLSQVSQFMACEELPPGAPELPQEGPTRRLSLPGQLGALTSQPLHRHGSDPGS

Row | SMILES | hERG current change (%, negative = inhibition) at 10uM [%]
1 | COc1ccc(-c2nnc(SCC(=O)N3CCCc4ccccc43)o2)cc1OC | 4.19
2 | CC(=O)c1sc(NC(=O)CCCc2nc3ccccc3c(=O)[nH]2)nc1-c1ccccc1 | -7.77
3 | O=C(CCn1c(=S)[nH]c2ccccc2c1=O)NCCCN1CCOCC1 | -5.65
4 | CN(C)CCCNc1ccc(-c2n[nH]c(=O)c3ccccc23)cc1[N+](=O)[O-] | 1.1
5 | O=C(O)Cn1nnc(-c2ccc(OCc3ccccc3Cl)cc2)n1 | 25.1
6 | CCOC(=O)C1=C(C)Nc2nc(C)nn2C1c1ccc(OCC)c(OC)c1 (stereo not shown) | 9.79
7 | Cc1ccc2c(c1)C=CC(C)(C)S2=O (stereo not shown) | 19.1
8 | CC(C)CC(=O)Nc1cc2nn(-c3ccccc3)nc2cc1Cl | 2.83
9 | Cc1cccc(CN2CCN(C(=O)CCl)CC2)c1 | 2.29
10 | O=C(Nc1ccc(N2CCCCC2)cc1)c1cncc(Br)c1 | 8.69
11 | COc1ccccc1CN(C)C(=O)C(c1ccccc1)c1ccccc1 | -2.32
12 | Cc1cnc(NC(=O)CSc2nnc(-c3ccc(Cl)cc3Cl)n2N)s1 | -30.5
13 | O=C(NCc1cccs1)C12CC3CC(CC(C3)C1)C2 | 15.6
14 | COc1cccc(NC(=O)COC(=O)CCOc2ccccc2OC)c1 | -3.21
15 | Cc1ccc(NC(=O)c2ccc(N3CCCC3=O)cc2)cc1S(=O)(=O)N1CCCCC1 | -3.33
16 | CN(C)S(=O)(=O)c1ccc(NC(=O)Cn2ccsc2=N)cc1 | 13.7
17 | COC(=O)C1CCN(S(=O)(=O)CCNC(=O)c2cccc(OC)c2)CC1 | -3.28
18 | C/C=C/C(=O)OCc1csc(CC(=O)Nc2ccccc2C)n1 | 0.285
19 | c1ccc(COn2c(-c3ccccc3)nc3c2CCc2nonc2-3)cc1 | 18.3
20 | O=C(NCc1ccncc1)C12CC3CC(CC(C3)C1)C2 | 0.119

Row | SMILES | hERG current change (%, negative = inhibition) at 10uM [%]
21 | Cc1ccc(NC(=O)c2sc3nc(N4CCOCC4)c4c(c3c2N)CC(C)(C)OC4)cc1 | 5.7
22 | Cc1ccc(NS(=O)(=O)c2ccc(CCC(=O)NCCCOC(C)C)cc2)cc1 | 4.27
23 | CCCOc1ccc(C2=NNC(=O)CC2)cc1 | 3.38
24 | Cn1c(NC(=O)C[n+]2cc(-c3ccc(F)cc3)n3c2CCC3)cc(=O)n(C)c1=O.[Cl-] | 1.04
25 | O=C(CCn1cnc2ncccc2c1=O)N1CCN(c2cccc(Cl)c2)CC1 | -20.8
26 | CCOC(=O)c1c(C)[nH]c(C)c1C(=O)COC(=O)c1ccc(OC)c(OC)c1 | -8.81
27 | CC1CC1C(=O)OCC(=O)Nc1ccc2[nH]c(=O)[nH]c2c1 (stereo not shown) | 2.94
28 | C=CCC1(CC=C)CCCN1C(=O)C1CCC(=O)N(CCc2ccccc2)C1 (stereo not shown) | -12.5
29 | COc1ccc(/C=C/C(=O)OCC(=O)NCc2ccco2)cc1OC | -72
30 | O=C(NCC(c1cccnc1)N1CCN(c2ccc(F)cc2)CC1)c1ccco1 (stereo not shown) | -47.7
31 | OCCC1CN(Cc2cccnc2)CCN1CCc1ccccc1 (stereo not shown) | -34.8
32 | Cc1nnc(SCC(=O)Nc2cccc(Br)c2)s1 | -19.4
33 | Cc1ccc(S(=O)(=O)N(C)C)cc1-n1c(SCC(=O)Nc2ccc(F)cc2Cl)nc2ccccc2c1=O | 0.00438
34 | c1ccc(OCc2noc(CN3CC[C@@H]4CCCC[C@H]4C3)n2)cc1 | 0.704
35 | CCN1CCN(C(=O)c2cc3sccc3n2CC(=O)c2ccccc2)CC1 | -45.5
36 | COc1ccc(Cl)cc1NC(=O)CN(C)C(=O)Cn1[nH]c(=O)c2ccccc2c1=O | -19.6
37 | COc1ccc(-c2cccc(NC(=O)c3ccc4c(c3)OCO4)c2)nn1 | 17.4
38 | CC(C)Cc1nc(N2CCN(C(=O)C(C)C)CC2)c(C#N)c2c1CCC2 | -27.2
39 | COc1cccc(C(=O)OCCNC(=O)c2cccnc2)c1.Cl | 5.55
40 | COc1ccccc1NC(=O)Cc1cccs1 | -1.6

Row | SMILES | hERG current change (%, negative = inhibition) at 10uM [%]
41 | COC(=O)c1cc(S(=O)(=O)NCCCc2ccco2)c[nH]1 | -7.89
42 | COc1cccc(CN2CCN(Cc3cccc4nonc34)CC2CCO)c1 (stereo not shown) | -66.3
43 | O=C(CNc1cc(S(=O)(=O)N2CCOCC2)ccc1N1CCCC1)N1CCc2ccccc21 | 6.91
44 | OC1(c2ccc(Br)cc2)CCNCC1 | -25.9
45 | COC(=O)CC1Nc2ccccc2SC1=O (stereo not shown) | 2.85
46 | O=C(CC(SCCO)c1ccc([N+](=O)[O-])cc1)c1ccco1 (stereo not shown) | -35.7
47 | Cc1cc(-c2ccccc2)nc(N(C)N)c1S(C)(=O)=O | -0.677
48 | COCCNC(=O)C(c1ccccc1F)N(C(=O)C(=O)NC1CCCC1)C1CCCCC1 (stereo not shown) | -9.4
49 | Cc1ccc(C2N(C)C(=O)c3ccccc3N2C)cc1 (stereo not shown) | 4.3
50 | CSCC(=O)Nc1ccc(F)c(Cl)c1 | 14.2
51 | COc1ccc(N2CCN(CC(=O)Nc3sccc3C#N)CC2)cc1 | -2.22
52 | S=C(Nc1ccc2c(c1)OCO2)Nc1ccc2c(c1)OCO2 | 26.1
53 | Cc1cccc(-c2nc3ccc(C(=O)N4CCC5(CC4)OCCO5)cc3nc2-c2cccc(C)c2)c1 | 17.5
54 | COc1ccc(CCNC(=O)c2cn(C)c3ccc(S(=O)(=O)N4CCOCC4)cc3c2=O)cc1OC | 7.91
55 | CCN1C(=S)N[C@@H](c2cccc(F)c2)C(C(=O)OC)=C1C | -0.0118
56 | Cc1oc(-c2cc3c(cc2Cl)OCO3)nc1CN1CCCC1c1ccc(F)cc1 (stereo not shown) | 13.6
57 | Cc1c(Cl)c(C(=O)NC2CCCC2)nn1C | -0.645
58 | CCCCC(=O)NC(NC(=O)CCCC)c1ccc(OCC(C)C)c(OC)c1 | 3.81
